“And” between values parts separate entries of the source, which are not always exact repeats. Equal values may be shown once.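 1) Cells in 96-well plates. 2) Compound, 48 h, 5 concentrations. 3) Linear interpolation between surrounding doses. 4) Unreached endpoint = highest concentration. GI50: concentration for 50% inhibition of growth. TGI is the concentration that stops growth completely.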 A value given as a limit tells only on which side of the number the result lay.

This experiment relates to NCI-H322M lung. Description: inhibition of tumour cell growth, NCI panel, 48 h.
In the case of `O=C(/C=c1\oc(=O)/c(=C/C(=O)c2ccc(Cl)cc2)oc1=O)c1ccc(Cl)cc1`, the TGI is > 100 µM.
On the same count and under the same terms, the figure for `Clc1ccccc1C1N2CCCCC2[C@@H]2c3[nH]c4ccccc4c3CCN12` (some centres not stated) is 39.6 µM; for `C=C1C(=O)CCC1C(=O)O` (configuration not stated) it is > 100 µM.
The same measure, in the same setting: the same measure for `COC(=O)C1=C([C@H]2COC(C)(C)O2)[C@H]2C[C@@H]1[C@@H]1OC(C)(C)O[C@@H]12`: > 100 µM; for `Cc1nc2c(=O)n(C)c(=O)nc-2n(CCO)c1C`: > 100 µM; for `CCOC(=O)CCC(NC(=O)c1ccc(Nc2cnc3cc(C(F)(F)F)ccc3n2)cc1)C(=O)OCC` (configuration not stated): > 100 µM.
The same measure, in the same setting: the figure for `c1ccc(CCCNc2nnnc3ccccc23)cc1` is > 100 µM.
As to `FC(F)(F)c1[nH]ncc1-c1nc2c(N3CCCCC3)cc3[nH]ncc3c2c2c1CCCC2`, the GI50 was 0.86 µM and the TGI was 3.53 µM.
Regarding `CN(C)Cc1cc(N=Nc2ccccc2Cl)ccc1O`, the TGI is > 100 µM.
On to `COc1ccc(C(=O)Nc2ccc(S(=O)(=O)NCC(=O)O)cc2)cc1`, for which the TGI was > 100 µM.
The same measure, in the same setting: the figure for `CCCC(=O)OCC1(CO)C/C(=C/CC(C(C)C)C(C)C)C(=O)O1` (configuration not stated) is > 100 µM.
With `COc1ccc2c(O)c(/C=C3\N=Nc4ncccc43)oc2c1C[C@H]1CCNC[C@H]1F`, the GI50 is 1.14 µM and the TGI was 7.07 µM.
As for `COc1cc([N+](=O)[O-])c(S(=O)(=O)O)cc1N`, the TGI was > 100 µM.
For `CCN1/C(=C/C=C/C=C/c2sc3ccccc3[n+]2CC)Sc2ccccc21`, the GI50 is 0.445 µM and the TGI was determined as 3.43 µM.
The like results for `COc1ccc(S(=O)(=O)NC2=NCCN2C(=S)SN2CCn3c2nsc3=S)cc1OC` were, in that order, 29.2 µM and > 100 µM.
For the compound `COC1=C(C)C(=O)C2=C(C1=O)C(CO)N1C(C#N)C3CC4C(C1C2N1CCOC41)N3C` (configuration not stated), the GI50 is 0.024 µM and 0.107 µM; the TGI is 1.76 µM and 1.6 µM and 2.01 µM.
Regarding `C=CCC(N[C@@H](CO)c1ccccc1)c1ccccn1` (some centres not stated), the GI50 is > 100 µM and the TGI was > 100 µM.
As for `COCOc1cc(OC)c(Br)cc1C/C(=N/O)C(=O)OC`, the TGI is > 100 µM.
On the same count and under the same terms, the figure for `COc1cc(OC)cc(-n2c(N)c(-c3nc4ccccc4s3)c3ccc([N+](=O)[O-])cc3c2=O)c1` is > 100 µM; for `Cc1ccc(/C=N/Nc2cc(C)c3ccccc3n2)s1` it is 54.7 µM; for `NC1=NN(c2ccccc2)C(=O)C1/C(=N\NC(=O)c1cc2ccccc2cc1O)C(=O)Nc1nc([N+](=O)[O-])cs1` (configuration not stated) it is > 100 µM.
Same read-out and setting: the figure for `C=C(CN(C)C)C(=O)c1ccc(C)cc1C` is 50.3 µM.
In the case of `COc1cc(-c2nc(-c3nnc(-c4ccc(F)c(Cl)c4)o3)c3ccccn23)cc(OC)c1OC`, the GI50 was 5.05 µM and the TGI is > 100 µM.
Take `Cc1cc(S(=O)(=O)Nc2nc3ccccc3[nH]2)c(S)cc1Cl`: the TGI is > 100 µM.
For `CN(C)CCNC(=O)c1cccc2cc([N+](=O)[O-])ccc12`, the GI50 was 1.11 µM and 0.268 µM; the TGI is 12 µM and 1.55 µM.
On to `COc1cc(C(C#N)NNC(=O)Cc2ccccc2)cc(OC)c1OC` (configuration not stated), for which the TGI is > 100 µM.
In the case of `CCN1CCC2(CC1)NC(=O)c1c(c3ccc(Cl)c(Cl)c3n1C)C2C#N` (configuration not stated), the GI50 was 2.74 µM and the TGI was 12 µM.
With `Cc1ccc(P(c2ccc(C)cc2)c2ccc(C)cc2)cc1`, the TGI is > 100 µM.
Same read-out and setting: the figure for `CN/C=C(/c1ccc(OC)cc1)C(O)c1ccc(OC)c(OC)c1` (configuration not stated) is > 100 µM; for `CC(C)(O)/C=C\P(C)(=O)c1ccccc1` (configuration not stated) it is > 100 µM.
As to `N=C(N)c1ccc(-c2ccc(-c3cncc4ccccc34)s2)cc1F`, the GI50 is 1.74 µM and the TGI came to 3.22 µM.
`COc1ccc2c(c1)CCC(CN1CCN(CCOC(c3ccc(F)cc3)c3ccc(F)cc3)CC1)C2O` (configuration not stated) yielded a TGI of 29 µM.
The same measure, in the same setting: the figure for `N#Cc1c(N)c2c(c(-c3ccccc3)c1-c1ccccc1)C(=O)N(Nc1ccccc1)C2=O` is 58 µM; for `Clc1ccccc1-c1nc(-c2ccncc2)no1` it is > 100 µM.
`CCOC(=O)/C(=C\c1ccnc2ccccc12)P(=O)(OCC)OCC` came in with a TGI of 13.4 µM.
The same measure, in the same setting: the figure for `CCN(CC)CCSc1n[nH]c(-c2c[nH]c3nc(C)ccc3c2=O)n1` is > 100 µM.
`Cc1cc(C(=O)N[C@@H](CCC(=O)O)C(=O)O)sc1CC[C@@H]1CNc2nc(N)[nH]c(=O)c2C1`: the GI50 was 0.0592 µM and the TGI is > 100 µM.
As to `CC(C)[C@](O)(C(=O)OCC1=CC[N+]2([O-])CC[C@@H](O)[C@@H]12)[C@H](C)O` (some centres not stated), the TGI was > 10000 µM.
Still for that read-out and setting: the same measure for `C/C(=C1/N=C(c2ccccc2)OC1=O)c1ccc(C)cc1`: > 100 µM.
Regarding `Clc1nc(Cl)c2ncn(C/C=C/Cn3cnc4c(Cl)nc(Cl)nc43)c2n1`, the GI50 is 25 µM and the TGI is 58.9 µM.
Consider `CS(=O)(=O)N1CC(CCl)c2ccc(NCCN)cc21` (configuration not stated), for which the TGI was > 100 µM.
With `COc1cc2cn3c4ccc(O)cc4nc(N)c3c2cc1OC`, the GI50 was 1.88 µM and the TGI worked out at 15.5 µM.
As to `CN(C)CCNC(=O)c1cccc2ccc(-c3cccnc3)nc12`, the TGI amounted to 32 µM.
Compound `FC(F)(F)c1ccc2c(c1)nc(Cc1ccc(Cl)c(Cl)c1)n2CC1CCCN2CCCCC12` (configuration not stated) came in with a TGI of 33.8 µM.
Still for that read-out and setting: the same measure for `COc1ccc2[nH]c3c([N+](=O)[O-])ccc(Cl)c3c(=O)c2c1`: 99.8 µM; for `CC(=O)/C=C(/C=N/O)c1ccccc1`: > 100 µM; for `CC(OC1CC(=O)CC2C(=O)C=CC(=O)C12)c1ccccc1` (configuration not stated): > 54 µM.
Still for that read-out and setting: the same measure for `O=S(=O)(O)c1cc(N=Nc2cc(S(=O)(=O)O)c3ccccc3c2O)ccc1/C=C/c1ccc(N=Nc2cc(S(=O)(=O)O)c3ccccc3c2O)cc1S(=O)(=O)O`: > 1000 µM.
Regarding `Cc1cc(S(N)(=O)=O)c(S/C(=N\Nc2ccc([N+](=O)[O-])cc2)c2ccc(O)cc2)cc1Cl`, the GI50 was 2.34 µM and the TGI is 7.43 µM.
Turning to `COc1ccc([C@@H]2CC(=O)NCCCNCCCCNCCCN2)cc1`, the TGI was > 100 µM.
The same measure, in the same setting: the same measure for `OC1CSCCCSCCSCCCSC1`: > 100 µM.
For the compound `CC(C)(C)OC(=O)N1CC(Cn2cc(C(F)(F)F)c3c(Cl)ncnc32)C1`, the GI50 was 1.8 µM and the TGI is 3.26 µM.
Consider `CCOC(=O)c1ccc(NC(=O)O/N=C(/Cl)C(C)C)cc1`, for which the TGI amounted to 30.5 µM.
Turning to `C=C(C)[C@@H]1CC[C@]2(C(=O)Nc3ccccn3)CC[C@]3(C)[C@H](CC[C@@H]4[C@@]5(C)CCCNC(C)(C)[C@@H]5CC[C@]43C)[C@@H]12`, the GI50 was 2.39 µM and the TGI was 7.49 µM.
With `O=[N+]([O-])c1ccc(/C=N\Nc2ccc([N+](=O)[O-])cn2)cc1`, the TGI is > 100 µM.
On the same count and under the same terms, the same measure for `CC(=O)Nc1ccc(-c2nc3ccccc3s2)cc1Cl`: > 100 µM.
Turning to `COc1ccc(-c2ccc3ncc4c(c3c2)n(-c2ccc(N3CCNCC3)c(C(F)(F)F)c2)c(=O)n4C)cn1`, the GI50 is < 0.01 µM and 0.00881 µM; the TGI is 0.399 µM and 0.179 µM.
`CC(O)CCNC(=O)Nc1c(C(F)(F)F)cc(-c2ccccc2)[nH]c1=O` (configuration not stated): the TGI was > 100 µM.
On the same count and under the same terms, the same measure for `CC(C)=CCc1c(O)ccc2c1OC1c3ccc(O)c(CC=C(C)C)c3OCC21` (configuration not stated): 26.7 µM.
On the same count and under the same terms, the same measure for `CC(C)[C@H]1CO[C@@H]2O[C@H](C)CC(=O)N21`: > 100 µM; for `CNS(=O)(=O)c1ccccc1C(=N)c1ccccc1`: > 100 µM.
As to `O=[N+]([O-])c1cccc(/C=C/c2ccccn2)c1`, the GI50 is 51.2 µM and the TGI was > 100 µM.
The like results for `CSC1=Nc2c(c(C)c(-c3ccccc3)n2CCCCl)C2=NC(=O)CN12` were, in that order, 9.77 µM and 24.3 µM.
As for `Nc1ccc(OCC(O)N2C(=O)c3ccccc3C2=O)cc1` (configuration not stated), the TGI is > 100 µM.
`C[C@@H]1[C@H]2[C@H](C=C3[C@@H]4CC[C@H]5Cc6nc7c(nc6C[C@]5(C)[C@H]4C[C@@H](O)[C@@]32C)C[C@@H]2CC[C@H]3C4=C[C@@H]5O[C@@]6(CC[C@](C)(CO)O6)[C@@H](C)[C@@]5(O)[C@@]4(C)[C@H](O)C[C@@H]3[C@@]2(C)C7)O[C@]12CCC(C)(C)O2`: the GI50 is 2.68 µM and the TGI came out at 29 µM.
Take `O=C(O)CC(C(=O)O)C1c2ccccc2-c2ccccc21` (configuration not stated): the TGI is > 100 µM.
Consider `CC(=O)/C(N=Nc1ccc(-n2c(C)nc3ccc(Br)cc3c2=O)cc1)=C(/C)O`, for which the TGI was > 100 µM.
For `O=C1OCC2=C1C(c1cccc(C(F)(F)F)c1)c1cc3c(cc1N2CCO)OCO3` (configuration not stated), the GI50 is 2.17 µM and the TGI was > 50 µM.
Turning to `CCOC(=O)C12CCSC1C1(C#N)C(C#N)=CC2(N=P(c2ccccc2)(c2ccccc2)c2ccccc2)n2c(=O)n(-c3ccccc3)c(=O)n21` (configuration not stated), the TGI is > 100 µM.
The same measure, in the same setting: the same measure for `COc1cc2c(cc1O)[C@H](C)C(c1ccccc1OC)O2` (some centres not stated): > 100 µM.
With `Fc1c[c-]c(-c2ccccn2)c(F)c1.[CH3-].[Pt+2].c1ccc([PH+](c2ccccc2)c2ccccn2)cc1`, the GI50 is 2.78 µM and the TGI is > 100 µM.
As for `CCOC(=O)CCSS(=O)(=O)C(F)(F)F`, the TGI is > 100 µM.
On the same count and under the same terms, the figure for `[C-]#[O+].[C-]#[O+].[Ir].[O-]c1ccc2ccccc2c1N=Nc1ccccc1` is > 86.9 µM.
For `Cc1cc(O)c(C2=NN(c3ccc(S(N)(=O)=O)cc3)C(c3ccccc3O)C2)cc1Cl` (configuration not stated), the GI50 is 2.26 µM and the TGI came out at 7.11 µM.
The like results for `COc1ccc2c(c1)CC[C@@H]1[C@@H]2CC[C@]2(C)c3[nH]ncc3C[C@@H]12` were, in that order, 26.4 µM and > 50 µM.
For the compound `O=[N+]([O-])c1cc2c(cc1O)[nH]c1cccc([N+](=O)[O-])c12`, the TGI was > 100 µM.
As to `O=C1NC(=O)[C@@H](OCC2CCCCC2)[C@@H]2OCC3OC(C(O)C3O)C12` (some centres not stated), the TGI is > 100 µM.
On the same count and under the same terms, the same measure for `N#C/C(=C\c1ccc(F)cc1)c1nc2ccccc2c(=O)[nH]1`: > 100 µM; for `CC1(C(=O)NCCN(CCNC(=O)C2(C)CC3(C)CC(C)(C2)C(=O)NC3=O)CCNC(=O)C2(C)CC3(C)CC(C)(C2)C(=O)NC3=O)CC2(C)CC(C)(C1)C(=O)NC2=O` (configuration not stated): > 100 µM.
Still for that read-out and setting: the same measure for `CCN(CC)C(=S)SC(=S)N(CC)CC`: > 100 µM; for `O=C1NC2(CCCC2)/C(=N\O)C12CCCC2`: > 100 µM.
With `Brc1cccc(Nc2ncnc3sc4c(c23)CCC(Nc2cccc(Br)c2)C4)c1` (configuration not stated), the TGI was > 100 µM.
In the case of `Nc1ccc(-c2ccc(Nc3cc(S(=O)(=O)O)c(N)c4c3C(=O)c3ccccc3C4=O)cc2)c(S(=O)(=O)O)c1`, the TGI is > 100 µM.

The values above are taken from PubChem BioAssay (NCI).
